PubChem BioAssay AID2147 (National Center for Advancing Translational Sciences (NCATS), 2009)
Screen size: about 230,000 compounds; about 3,600 (1.6%) were called active. Inconclusive means that the source gave no clear call. Such entries were picked first, then a sample of the others. The call rests on the fitted dose curve; in most records, active means well fitted inhibition curve with a large enough effect (not every such curve was filed as active); inconclusive means small, poorly fitted or top-dose-only effect, or another doubt; inactive means no such curve, though single readings can be large or run the other way. A potency beside an inconclusive call is a rough fit, not a confirmed value.

target: Lysine-specific demethylase 4E (Homo sapiens) (UniProt B2RXH2); assay: qHTS Assay for Inhibitors of Human Jumonji Domain Containing 2E (JMJD2E); details: JMJD2E catalytic domain, FDH-coupled NADH fluorescence (FDH is formaldehyde dehydrogenase); series mostly up to 57.1 µM; activity change, negative = inhibition: at the top concentration
UniProt B2RXH2, sequence (B2RXH2 whole entry, looked up, the tested form may be a part): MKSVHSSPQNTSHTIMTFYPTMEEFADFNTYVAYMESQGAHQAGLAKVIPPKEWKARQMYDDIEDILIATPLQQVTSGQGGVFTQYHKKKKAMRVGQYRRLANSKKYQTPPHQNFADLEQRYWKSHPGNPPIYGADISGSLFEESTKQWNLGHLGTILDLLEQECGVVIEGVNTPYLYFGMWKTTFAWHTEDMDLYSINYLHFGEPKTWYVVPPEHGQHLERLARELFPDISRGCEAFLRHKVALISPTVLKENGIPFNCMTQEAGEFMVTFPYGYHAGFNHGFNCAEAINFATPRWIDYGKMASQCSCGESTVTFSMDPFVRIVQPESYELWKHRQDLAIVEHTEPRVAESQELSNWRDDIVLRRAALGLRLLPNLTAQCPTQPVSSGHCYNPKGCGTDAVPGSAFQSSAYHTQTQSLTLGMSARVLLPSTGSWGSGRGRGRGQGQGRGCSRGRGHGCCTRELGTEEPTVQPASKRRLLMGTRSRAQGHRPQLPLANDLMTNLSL
Further: nearly all actives have a fitted effect of over 50% in size.
Potency means the concentration at half of the fitted maximal effect; tags describe the fitted curve by direction and shape.
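Wherever activity change, negative = inhibition is given: 0% = wells with enzyme and -100% = buffer wells without enzyme.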

Row | Structure (SMILES) | activity change, negative = inhibition | Potency
1 | CCC1CSC(Nc2ccc(C(=O)/C=C/c3ccc(Oc4ccccc4)cc3)cc2)=N1 (centres undefined) | inactive: -2.62% | –
2 | O=C(N/N=C/c1cc(Cl)cc([N+](=O)[O-])c1O)NC12CC3CC(CC(C3)C1)C2 | inactive: 6.75% | –
3 | FC(F)(F)c1cc(Oc2ccccc2Cl)nc(-c2ccccn2)n1 | inactive: 0.898% | –
4 | C=C(C)C1COc2cc3oc(=O)ccc3cc2O1 (centres undefined) | – | inconclusive: 28.2 µM [inhibitor, partial curve]
5 | COc1cccc(/C=N/NC(=O)c2oc3nc(-c4ccccc4)cc(-c4ccco4)c3c2N)c1 | – | inconclusive: 25.1 µM [inhibitor, partial curve]
6 | O=C(Nc1nnc(-c2ccncc2)o1)c1ccccc1F | – | inconclusive: 35.5 µM [inhibitor, single point]
7 | Cc1cc(NS(=O)(=O)c2ccc(NC(=O)CSc3nc4ncc(Br)cc4[nH]3)cc2)nc(C)n1 | inactive: 3.4% | –
8 | c1ccc(COc2cccc(CN3CCN(c4ccccn4)CC3)c2)cc1 | – | inconclusive: 28.2 µM [inhibitor, partial curve]
9 | COc1cc(/C=N/n2c(-c3n[nH]c4c3CCC4)n[nH]c2=S)cc(OC)c1O | inactive: -9.17% | –
10 | COC(=O)C1=C(C(=O)OC)[C@@H]2N(Cc3ccccc3)c3ccccc3[C@@]23C[C@@H](C(=O)OC)N(S(=O)(=O)c2ccc(OC)cc2)C3=N1 | inactive: -1.53% [at 11.4 µM] | –
11 | O=S(=O)(c1ccc(F)cc1)N1CCN(Cc2ccccc2C(F)(F)F)CC1 | – | inconclusive: 28.2 µM [inhibitor, single point]
12 | CCN(CC)CCCNc1nc2cc(OC)c(OC)cc2c2nc(-c3ccccc3)nn12 | – | inconclusive: 25.1 µM [inhibitor, partial curve]
13 | CC(=O)C(Cc1ccccc1)NC(=O)CCl (centres undefined) | – | inconclusive: 39.8 µM [inhibitor, single point]
14 | Nc1nc(CSC(=S)N2CCCCC2)nc(Nc2ccccc2)n1 | – | inconclusive: 39.8 µM [inhibitor, single point]
15 | CCOC(=O)N1CCC(NC(=O)c2cccc3c2C(=O)N(c2ccc(OC)cc2)C3)CC1 | – | inconclusive: 39.8 µM [inhibitor, single point]
16 | Cc1c(C(=O)OCC(=O)Nc2ccc(C(N)=O)cc2)cccc1[N+](=O)[O-] | inactive: 2.52% | –
17 | Cn1c(N/N=C/c2ccccc2)nc2sc3c(c2c1=O)CCC3 | – | inconclusive: 39.8 µM [inhibitor, single point]
18 | CN(C)c1ccc(/C=C/c2nnnn2-c2ccccc2)cc1 | – | inconclusive: 39.8 µM [inhibitor, single point]
19 | COc1cc(C(=O)Nc2ccc(NC(C)=O)cc2)ccc1OCc1ccccc1 | – | inconclusive: 39.8 µM [inhibitor, single point]
20 | CC(C)Cc1nc2oc3c(NCC(C)O)ncnc3c2c2c1CCCC2 (centres undefined) | – | inconclusive: 28.2 µM [inhibitor, partial curve]
21 | C=CCn1c(-c2ccc(OC)c(OC)c2)cs/c1=N\c1ccccn1 | – | inconclusive: 31.6 µM [inhibitor, single point]
22 | O=C(Cn1c(=O)c2sccc2n(Cc2ccc([N+](=O)[O-])cc2)c1=O)NCCc1ccccc1 | inactive: 17.6% | –
23 | COc1ccc(-c2cc3ccccc3n2CC(O)Cn2nc(C)cc2C)cc1 (centres undefined) | – | inconclusive: 31.6 µM [inhibitor, partial curve]

Row | Structure (SMILES) | activity change, negative = inhibition | Potency
24 | CC(C)OC(=O)CC(=O)c1sc2nc3c(cc2c1N)CN(C)CC3 | – | inconclusive: 28.2 µM [inhibitor, single point]
25 | S=C(Nc1ccc2cn[nH]c2c1)Nc1ccc(Cl)cc1Cl | – | inconclusive: 35.5 µM [inhibitor, partial curve]
26 | COc1ccc(/C=C/C(=O)N2CCNC(=O)C2)c(OC)c1 | – | inconclusive: 39.8 µM [inhibitor, single point]
27 | COC(=O)Nc1nn(-c2ccc(C)cc2)c(=O)c(C#N)c1C | inactive: -0.117% | –
28 | O=C(CNC(=O)c1ccc2ccccc2c1)OCC(=O)N1CCN(S(=O)(=O)c2ccc3ccccc3c2)CC1 | – | inconclusive: 25.1 µM [inhibitor, single point]
29 | Cc1cc(N/N=C/c2ccc(O)cc2O)nc(-c2ccccc2O)n1 | – | inconclusive: 0.447 µM [inhibitor, full curve, poor fit]
30 | CC(=O)Nc1ccc(N2CCOCC2)c(C(=O)Nc2cccc(C)c2)c1 | – | inconclusive: 35.5 µM [inhibitor, single point]
31 | Cc1ccc(CNC(=O)CSc2ccc(-c3ccco3)nn2)cc1 | – | inconclusive: 31.6 µM [inhibitor, single point]
32 | O=C1OC(Cc2ccccn2)C(O)=C1C1=NCCCN1 (centres undefined) | inactive: 4.78% | –
33 | CC(C)[C@@H](CO)NC(=O)c1ccc2c3n(nc2c1)-c1ccccc1CO3 | – | inconclusive: 35.5 µM [inhibitor, partial curve]
34 | COC(=O)Nc1ccc2ncn(C)c(=O)c2c1 | – | inconclusive: 39.8 µM [inhibitor, single point]
35 | CCOC(=O)COc1c(-c2ccc(OC)cc2)oc2ccccc2c1=O | – | inconclusive: 35.5 µM [inhibitor, partial curve]
36 | COc1ccc(-c2cc3nc(C)c(CCC(=O)NCc4ccco4)c(C)n3n2)c(OC)c1 | – | inconclusive: 25.1 µM [inhibitor, partial curve]
37 | COc1ccc2ccc3c(c2c1)N=CC1(O3)N(C)c2ccccc2C1(C)C (centres undefined) | – | active: 14.1 µM
38 | CCC(CC)C(=O)c1c[nH]c(C(=O)O)c1 | inactive: 4.9% | –
39 | CC1CCc2c(nc3sc4c(c3c2N)CCCC4)C1 (centres undefined) | inactive: 5.58% | –
40 | COc1ccc(-c2nc(C#N)c(NCc3ccco3)o2)cc1 | – | inconclusive: 28.2 µM [inhibitor, partial curve]
41 | CCC(NC(C)C)C(O)c1ccc(O)c2[nH]c(=O)ccc12 (centres undefined) | – | inconclusive: 35.5 µM [inhibitor, single point]
42 | COC(=O)CCC(=O)OC1(C)C(=O)C2=CN(c3ccccc3)C(c3ccc(OC)cc3)=CC2=C(Br)C1=O (centres undefined) | – | inconclusive: 7.08 µM [inhibitor, single point]
43 | c1ccc(-c2cc3c(N4CCOCC4)ncnc3s2)cc1 | – | inconclusive: 25.1 µM [inhibitor, partial curve]
44 | N#CC1=C(N)OC2=C(CCc3ccccc32)C1c1ccccc1 (centres undefined) | – | inconclusive: 39.8 µM [inhibitor, single point]
45 | COC(=O)C1=C(C(=O)OC)[C@@H]2Nc3ccccc3[C@@]23C[C@@H](C(=O)OC)N(S(=O)(=O)c2c(C)noc2C)C3=N1 | inactive: 2.99% [at 11.4 µM] | –
46 | Nc1cccc2[nH]c(C(F)(F)F)nc12 | inactive: -26.5% | –

Row | Structure (SMILES) | activity change, negative = inhibition | Potency
47 | CCCCOc1ccc(-c2cnc3ccccc3n2)cc1 | – | inconclusive: 31.6 µM [inhibitor, partial curve]
48 | O=C(Nc1ccc2nc(-c3cccs3)c(-c3cccs3)nc2c1)N1CCOCC1 | – | inconclusive: 35.5 µM [inhibitor, partial curve]
49 | COC(=O)C1=C(C)NC(C)=C(C(=O)OC)C1c1cn(-c2ccccc2)nc1-c1ccco1 | – | inconclusive: 28.2 µM [inhibitor, partial curve]
50 | Oc1c(/C=N/c2ncn[nH]2)ccc2ccccc12 | inactive: -24.4% | –
51 | CCn1c(/C=C/c2c[nH]c3ccccc23)nc2ccccc2c1=O | – | inconclusive: 39.8 µM [inhibitor, single point]
52 | O=C(Nc1nc(NC(=O)c2ccco2)n(-c2ccccc2)n1)c1ccccc1 | – | inconclusive: 35.5 µM [inhibitor, single point]
53 | c1cnc2ccc(C(c3nnnn3C3CCCCC3)N3CCCCC3)cc2c1 (centres undefined) | inactive: -3.72% | –
54 | CC(C)n1c(/C=C/c2ccccc2)nc2ccccc21 | – | inconclusive: 31.6 µM [inhibitor, partial curve]
55 | CCCn1nc2cc(C(=O)N(CC)c3ccc(OC)cc3)ccc2c1OCC | – | inconclusive: 28.2 µM [inhibitor, partial curve]
56 | COc1ccc(Cl)cc1NC(=S)NCCc1c[nH]c2ccccc12 | inactive: 0.216% | –
57 | Cc1ccc(OCCOCCOc2cccc3cccnc23)c(Br)c1 | – | inconclusive: 31.6 µM [inhibitor, single point]
58 | COc1cccc(/C=N/n2cnnc2)c1OCc1ccccc1 | – | inconclusive: 28.2 µM [inhibitor, single point]
59 | O=C(Cc1ccsc1)N1CCc2c([nH]c3ccccc23)C1c1ccccn1 (centres undefined) | – | inconclusive: 31.6 µM [inhibitor, single point]
60 | O=C(O)c1ccc2cc(-c3ccc(O)c(C45CC6CC(CC(C6)C4)C5)c3)ccc2c1 | – | inconclusive: 12.6 µM [inhibitor, partial curve]
61 | Fc1ccc(-c2nnc(CN3CCN(c4ncc(C(F)(F)F)cc4Cl)CC3)o2)cc1 | inactive: -1.39% | –
62 | CCOc1ccc(-c2nnc(-c3cccnc3)o2)cc1OCC | – | inconclusive: 35.5 µM [inhibitor, partial curve]
63 | Cc1ccc(C)c(CSc2nnc(-c3ccccn3)n2N)c1 | inactive: 4.96% | –
64 | CCN1CCN(Cc2ccc(NC(=O)c3cc(NC(=O)c4cncc(-c5ccc(C#N)cc5)c4)cc(OC)c3)cc2C(F)(F)F)CC1 | – | inconclusive: 39.8 µM [inhibitor, single point]
65 | CN(C(=S)Nc1ccc(SC(F)F)cc1)c1ccc(O)cc1 | – | inconclusive: 2.24 µM [inhibitor, full curve]
66 | Cc1nc(CNC(=O)c2cc(COc3ccc(F)cc3Cl)on2)cs1 | inactive: 8.01% | –
67 | Cc1cc(-c2ccccc2)n(-c2cc(N/N=C/c3ccccc3O)ncn2)n1 | – | inconclusive: 25.1 µM [inhibitor, single point]
68 | CC(=O)c1cc(CN2C(=O)c3ccccc3C2=O)cs1 | inactive: -4.75% | –
69 | Fc1ccc(Br)cc1C1C=C(c2ccc(Br)s2)Nc2ncnn21 (centres undefined) | – | active: 28.2 µM
